Sequences with one replicate were seen in a single cluster, so their values are uncertain.
Tested on: ATP
Assay: switch fluorescence ratio, 500 uM ATP over buffer (Cy3 cluster intensity, sum of 5 cycles each) (fold (ratio)); higher = stronger signal-on switching upon ATP binding; sequences stand for … in TCGTCGGCAGCGTCAGATGTGTATAAGAGACAGTTTTTTTTTTTTTTTTTTTTTTTTT…TC
Conditions: aptamer strand: ATP DNA aptamer (quencher-CACCTGGGGGAGTATTGCGGAGGAAGG + anchor), 100 nM annealed; ATP concentration: 500 uM; one replicate
Outline: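 Imaging in selection buffer was followed by imaging after 15 min with 500 uM ATP at 22 °C, for Cy3-labelled switching-strand clusters annealed to 100 nM quencher-labelled ATP aptamer on a modified Illumina MiSeq flow-cell. Five of these buffer/ATP cycles ran, separated by NaOH stripping and re-annealing. The fluorescence ratio per cluster is summed target-cycle over summed buffer-cycle Cy3 intensity, averaged per switch-domain sequence; clusters outside 100-1000 RFU were removed.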
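Also: ATP exposure 15 min at 22 °C before imaging.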

Sequence | switch fluorescence ratio
GATGATGCT | 0.946
GGGCAAGGA | 0.99
GATAAGTTCG | 0.994
ATTCGGTGTC | 0.95
GGGTCGGGCT | 0.951
TAAATGCGC | 0.99
TTGTATGGCC | 0.964
TGAGCTTGTG | 1.01
GAGCAGTTGG | 1.03
CGTATGGTAT | 0.986
GAGATACATT | 1.03
CAGCCTGTCC | 1.17
TAATCATCTT | 1.04
ACACTGAAGG | 1.01
TAGTGCT | 0.953
ATGGCCCAAG | 0.979
TATTTCTAG | 1.01
TAGAACGTTT | 0.981
CTGTCTGTAA | 1.08
GCAATCAAAG | 1.22
CGATTTTTAT | 1.01
TCGCTTCTAT | 1.06
CAGAATCATG | 0.963

Sequence | switch fluorescence ratio
AGTTTGTCTA | 1.02
TTGGGTAGTA | 1.03
ATTGACTACA | 1.04
CAATGTAAG | 1.02
GAGTAAGTGT | 0.987
TCGGTATTCT | 1.05
GGATTTTCAG | 1.02
CACAAGTATA | 1.07
ATATGTGAGA | 1.02
TAAGGTTCTG | 0.995
CCAACGCGGA | 3.12
CGAATTATAA | 0.967
AGGTAATGG | 0.963
CCCCTGGGCC | 1.13
TAATGCGGG | 0.974
AAGCGTGGAG | 1.08
GCGCGCTTT | 0.96
ATTATGAAG | 1.03
GCAAGACTAG | 1.06
GTTCTTTAGA | 0.998
AATACCGCGG | 0.953
CGCTAAAGGA | 1.03
TTTTGAGCAG | 0.977

Sequence | switch fluorescence ratio
TCGAAAAGTT | 1
CGACTGTGTT | 1.02
GCAATGGCTC | 2.67
CGTCAGCTCG | 1.06
ACTGGACTCA | 1.15
CATGTCTGGC | 0.954
TACTCCTTTT | 0.998
TTAAATCCTT | 1.06
GTTAAATCGC | 0.97
CTGCACTTTT | 0.962
ATTCTTTTCG | 0.953
GTATCAAGCG | 1.03
CGCAGGGTAT | 1.04
TGGAGGGCAT | 0.987
AAGGAACTAG | 1.02
GAGCCCATAA | 0.984
TTCTCGCATT | 1.51
AAGGAGGAAG | 1
GCGAGCAAAC | 1.09
GCCGCGCCGT | 1.01
TCATTCGAGT | 1.02
TGCGCCAACC | 0.974
TCAATAGTGT | 1.01

Sequence | switch fluorescence ratio
AATCCTCCA | 1
TTGATGAT | 0.982
TGAAGCAGTT | 1.11
CTTATGAGG | 0.991
CCGGCTATGG | 1.25
CGAGAATGA | 1.03
GTGTGGATAC | 1.08
TGGCGAAAAT | 0.996
TGCCGGCCTG | 1.02
TTGTTACGAT | 1.04
ATGCCTGACC | 1.17
TAAAATAGGC | 1.13
CTAGGGGGAC | 1.01
CGTCGGCGGG | 1.03
AGACAGCCCA | 1.1
GGACTCTCGA | 1.01
TGAAAGTTCG | 0.978
TAGGTACCCA | 1.02
TTACTGAGCC | 1.05
TCCTGCTTGT | 0.984
CAGTCGATGT | 0.988
TCTTGGGGA | 0.99
ACGCCATGCG | 1.02

Sequence | switch fluorescence ratio
AGAGTATTCT | 0.975
GATATCGGGA | 1.03
AACTCGCACG | 1.1
AGATCCACGT | 1.05
CGCGTATGCT | 1.05
TCGGAATTGG | 1.1
GGTGATGGTA | 0.997
CGTTCAAGAG | 1.01
CGAAGTTGAT | 1.03
ACTCTTGACT | 1.05
CTTGAAACGG | 0.993
CATCCATCGG | 1.01
CTCCCTAGAT | 1.21
ACCAAATTGT | 1.11
GCAGTCGGGC | 1.01
TTACTGGGAG | 1.01
AGTGGGAGGT | 0.959
CAAGGCTGAA | 1.03
AACAGGACAA | 1.08
CCGTGTCTGG | 1
TTAGGACTAT | 1.01
CGGATGGCAA | 1.36
CGTAACCTAG | 0.997

Sequence | switch fluorescence ratio
TCGCCTACGA | 1.05
CGAGGAGACG | 1.03
ACCCAGTTAG | 1.07
GGAAACGTTA | 1.12
ACGGCATTC | 1.32
GACCTTCTAT | 1.14
AAAAGTATCT | 0.994
CCACGTGGCA | 1.03
TGCGTGGTGA | 1.01
GGGGTCGACA | 0.919
AAACGTGTAG | 1.05
TGCGGACAAT | 1.04
ATAATGGGAC | 0.983
TTGTATGAT | 0.981
GGCTAAAACG | 1.03
GCCTTTATGA | 1.02
ACTGTGATAA | 1.04
TTCCTGGCTC | 1.13
TGATGGCAAA | 1.48
TAATGACAAT | 0.984
GCGATTACA | 0.967
CGGTAAAATC | 1.49
TACCGAACAA | 1.25

Sequence | switch fluorescence ratio
TGTGATCGTA | 1.01
AGAAATCGAA | 1.03
GACTATAAAA | 0.951
AGGGAGGCTG | 1.11
TCATGGAGGG | 0.975
CGGTATCTGC | 0.942
AGCATGATAA | 0.972
CACCCCCGGG | 1.17
TGATGTTGGG | 0.982
GGTGGCCAGT | 0.979
TATCCAGCTG | 1
CCAGTCGCG | 1
CGGGATTTAT | 1.01
CACGCCTGC | 1.1
TAGTGTATC | 0.994
TGGGCGTGGT | 1.01
CCTGGATACC | 1.06
TGAAAATCCT | 1.14
ATGAGCCGTG | 1.02
ATAACTATTT | 0.979

Reference: the supplement of paper PMC10126150
